# In paper PMC12136788:
# The other results are listed elsewhere or left out.
# B1: chr7:44244176:44244177:+_ENSG00000106636_ENST00000223369|hu_mus|hu_hu_hu_mus_False|18_88 (ssRNA)
# RNA: GGGAGUUCUACAGUCCGACGAUCACUGUCGCUCCGGACGUAGACAUGGCACAGAUACUCUUGUUCUUUGACAGAAGCUCUGCUGCCUUUCCCCGAGCGUUCCACAAUCAGUUGACUCGUGAAGGUCAUGAAUUCCUGCACACUCAACAGAGGAUUGAGCAUCA
# B2: chr8:80578333:80578334:+_ENSG00000104435_ENST00000220876|hu_hu|FALSE|FALSE (ssRNA)
# RNA: GGGAGUUCUACAGUCCGACGAUCAACUCCAAUUCUUUAUUAAUCACAGCUUGCUCACAAUGACAUACAGGAAAAUAGCACUAAUGAAGAGUAAAUAUGCAGGCAGCAACCUUCAGGAGUUGGGAGUUGGGGAGAAACGACUUCCAACAGAGGAUUGAGCAUCA
# B3: chr3:176767854:176767855:-_ENSG00000177565_ENST00000430069|hu_hu|hu_hu_hu_mus_False|18_78 (ssRNA)
# RNA: GGGAGUUCUACAGUCCGACGAUCGACAUCCUUGUUACUGGGCACGUCCUGCCCUCCUUCUCGUAUACAGUGUCUAAGCACGAGCUGCGUAGGGCCACUCGUGCUGUUCUCACUGAGAUUCCAUAUUCUUGCCGUGGAGUCUCCCAACAGAGGAUUGAGCAUCA
# B4: 37380852_37383628_781_CDS_ENSG00000101442_ENST00000243903|human|control|control (ssRNA)
# RNA: GGGAGUUCUACAGUCCGACGAUCAUAAUCAGGACACCGCCAUUUGUGUAAUUCUUCCACAUAAUCCUCAGCGAUGUAGCUGUGCUCAUGCAGAAUCUCCUCCAUGCGGCUGAGGGUGAUGGCUGCCAGGUGCCCAGGGUACUUCAACAGAGGAUUGAGCAUCA
# B5: 63948079_63948331_9973_CDS_ENSG00000103657_ENST00000443617|human|control|control (ssRNA)
# RNA: GGGAGUUCUACAGUCCGACGAUCGCUGGGUAGAAACUUUCGCUGAAUUGAGUCAUCAACUGUGGUUAGAUUUACACCUGUUGCAGCAGAAAUCAAGUUCUGUGUACACAACUGUACAAGCAGUUUGGCAGCACUAGGAGCAUUCAACAGAGGAUUGAGCAUCA
# B6: chr3:185641624:185641625:-_ENSG00000136527_ENST00000456380|hu_mus|FALSE|FALSE (ssRNA)
# RNA: GGGAGUUCUACAGUCCGACGAUCGGCACGUUCUUUAGCUUCCUUGGCAUCGUCUACAUUUUCAAAAUAUACAAAGGCAAAUCCUCUUGAACGUCUAGAUUGCUGGUCAUAUACAAUAGACACAUCAGCAAUGGGGCCAUAUUUCAACAGAGGAUUGAGCAUCA
# B7: chr4:21803547:21803548:+_ENSMUSG00000028248_ENSMUST00000098238|mus_hu|FALSE|FALSE (ssRNA)
# RNA: GGGAGUUCUACAGUCCGACGAUCCACUUCAAGAUUGAUCUAAAAAACAUUUUAAGAUAUGAAAAUGUUAUACAACUUAUCUAUUACAAAUUAAUCAGAUAAUUCUGCAAUUAGGUACACUGUGUUAGCUCGCCUACAUAAAAACAACAGAGGAUUGAGCAUCA
# B8: 47371245_47371365_62_5pUTR_ENSG00000139684_ENST00000378720|human|control|control (ssRNA)
# RNA: GGGAGUUCUACAGUCCGACGAUCUGGCGGAGUGACCAGAAGAAGCGGGCCGAAGUAAAAGGCGGGGCUCAAGAUGGCCGCCGGGGCCUCGCCUCAGCCCCGCCCAUAUGAUGCCCCGCCCCUCCGGUCCCACUCACUCUCGCUCAACAGAGGAUUGAGCAUCA
# B9: chr5:3590733:3590734:-_ENSMUSG00000040302_ENSMUST00000042753|mus_mus|FALSE|FALSE (ssRNA)
# RNA: GGGAGUUCUACAGUCCGACGAUCAGGACUCUCAGGAGAUGUGUUUAAAGCAGCUGUACCAAAUCCAGGCAUAGGUGGAUGGAAACCUUGUCUAGAAUCUUUUGUUCCUUUCUGCUCUGGAACUGGUUUCUUCUUCGCCAUGUACAACAGAGGAUUGAGCAUCA
# B10: chr13:74460350:74460351:-_ENSMUSG00000021577_ENSMUST00000022062|mus_mus|FALSE|FALSE (ssRNA)
# RNA: GGGAGUUCUACAGUCCGACGAUCCACUGCACAAGAAUAAAGAGACAAAGUCUGGCGCAACUCAAUCCCUUACAGCAAGUACUACCAAGCUGUUGAUCACAAUCUAUGAAGUGACUCCUUGUUCAUGAGAGCAGAAUUUUACCACAACAGAGGAUUGAGCAUCA
# B11: chr18:48447474:48447475:+_ENSG00000082212_ENST00000321341|hu_hu|motif|central (ssRNA)
# RNA: GGGAGUUCUACAGUCCGACGAUCCCAGAUUUUCUUUUGUGCCUCUUGUUCUGACAGGCCAUUUUCUACCAUAGACAUAACGGUAAGAUUUGCAAUUCCAAGAGCAGCCUCUCCUGCUCCAAGGAAUAAGAUUUUGUGUUCGGACAACAGAGGAUUGAGCAUCA
# B12: chr3:9412954:9412955:+_ENSG00000134077_ENST00000452837|hu_mus|hu_hu_hu_mus_False|8_68 (ssRNA)
# RNA: GGGAGUUCUACAGUCCGACGAUCGGUUGAUAUCUCUUCUUUGAUGGCUGGAUUUUCAUAAUAGUCCAAGAUAUGAGAAUCUGAAGUGCUGCUGGCAUGCUUUUUCUUACCAUCUUUCUCAUCUGCUUUGACUUCUUGUCCACACAACAGAGGAUUGAGCAUCA
# B13: chr9:95013113:95013114:-_ENSG00000196305_ENST00000443024|hu_mus|FALSE|FALSE (ssRNA)
# RNA: GGGAGUUCUACAGUCCGACGAUCCUCAGUCAGAAAGGGCGUGUAAGGGGCCAUCAGUCUGCACAGAGAAAGCAGGACACUGAACAGUGUCUCCAGAGCCAUGACACAGUCUUCCACCCCACUCUCACCCUUUAACCUCCUCCUCAACAGAGGAUUGAGCAUCA
# B14: 137848527_137849260_819_CDS_ENSG00000120705_ENST00000360541|human|control|control (ssRNA)
# RNA: GGGAGUUCUACAGUCCGACGAUCCACUUUGUCCCCAGAAAUAAACAGCUGCACAGCAGUCUCUGCUACUUUCCGAACAUAGUUAUGUCGCUUUUCCAUUCUUAAACGGGCAAAACGCAAGGCUGACUGACCUCCUCUACCGUGCAACAGAGGAUUGAGCAUCA
# B15: chrX:20185780:20185781:-_ENSG00000177189_ENST00000379565|hu_mus|motif|central (ssRNA)
# RNA: GGGAGUUCUACAGUCCGACGAUCUUUGGUUAUAGUAAACAGGACAGCGCUGGCCUCUCGCUCUGAGAAAAACUUCUGUCGGAGAAUCUUAUCCAGCAAUUCACCUCCUUUCAUAAGUUCUGUUACUACAUACACAUAUUUUCCCAACAGAGGAUUGAGCAUCA
# B16: chr1:163112212:163112213:-_ENSG00000143248_ENST00000313961|hu_hu|hu_hu_hu_mus_False|8_88 (ssRNA)
# RNA: GGGAGUUCUACAGUCCGACGAUCUUUUAUUAUCAGUAAGAGUGAGUCACAUAGUACGCAAAGUAUUGGAUACAAUAAUCAGGAAACAAACACUAUUGGUCCAGAAUUUAAAACUUUAUGAGCGAAGGCUUACAAAUGGACUUACAACAGAGGAUUGAGCAUCA
# B17: chr3:10015032:10015033:+_ENSMUSG00000027533_ENSMUST00000029046|mus_mus|mus_mus_mus_hu_True|88_98 (ssRNA)
# RNA: GGGAGUUCUACAGUCCGACGAUCGUUUUUACCAUCACACGUAAUGAUACAGUCUGGCUUGGCCAUUGCGCCCAUUUUUCGCAAAGCUAUUCCCACUCCUAGCUCCUUCAUGUAUUCAUCAAAGCCUUUGCUGUCCACCAGGCGCAACAGAGGAUUGAGCAUCA
# B18: chr5:37516192:37516193:+_ENSMUSG00000063646_ENSMUST00000043794|mus_mus|motif|central (ssRNA)
# RNA: GGGAGUUCUACAGUCCGACGAUCUCCGUUUGAGAGCUUACAACAGAUAGAGUCUCUUACUUCGAGUUCUAGCACUCUGAAUUCGGACAGCUCGUUCUGGUCCUUGGCGUCUUGCAUUUCGCUCUUUAGCUGGUUCUCCUCCAUCAACAGAGGAUUGAGCAUCA
# B19: chr1:82725849:82725850:+_ENSMUSG00000026150_ENSMUST00000078332|mus_mus|FALSE|FALSE (ssRNA)
# RNA: GGGAGUUCUACAGUCCGACGAUCGGACCCUCAUUCGCUGACUAAUACCUUCGGUGUAUUCCAUUUCAUACUGAAUUCGACUAAUUUCUGCCAUCUCAGCAGCAGUGGGAGAAGGAAAUGCUGCCCCACUCACCAAAUGUGAAACAACAGAGGAUUGAGCAUCA
# B20: chr16:8621372:8621373:+_ENSMUSG00000057880_ENSMUST00000065987|mus_mus|FALSE|FALSE (ssRNA)
# RNA: GGGAGUUCUACAGUCCGACGAUCUGUGGUUUUCUACAGUGAACUGUAUAUAUGCGUACAGAGAUAGAUAGGUACAGAUCUAUUAGUACAUGAAUGUGCACAGUUUUUCAUGGUUACUGAGCAUCAGUAAAAAUUAUAAAAAUACAACAGAGGAUUGAGCAUCA
# B21: chr2:26491064:26491065:+_ENSMUSG00000036186_ENSMUST00000074240|mus_mus|FALSE|FALSE (ssRNA)
# RNA: GGGAGUUCUACAGUCCGACGAUCGAAGUCCGCCAUGAGAAGUAUCUGGUCAACCAGCGCUGGCAGGGAAGGCAGGUCUCCUAAGUUAGCCUUGAGGAAGCUGAGGGUCAUCUCCCGGAACUCCUUGAUGGAAGUUCCCCUGGUCAACAGAGGAUUGAGCAUCA
# B22: chr6:143133109:143133110:+_ENSMUSG00000030275_ENSMUST00000032413|mus_hu|FALSE|FALSE (ssRNA)
# RNA: GGGAGUUCUACAGUCCGACGAUCUUUGGGGAUCCAGCCAUUGUGUGCAUGAAUAGCAUGGAUUUUAGCAAGCUGACGAGCUAUUAGCCUGAAAAUGGCUGGGUUGCAGACAUGCUUUGGAUCCAGUGCUUCUCCUUGUAUAAACAACAGAGGAUUGAGCAUCA
# Target: T1, UNK ZnF1-3 (human, UniProt Q9C0B0 31-174)
# T1 sequence: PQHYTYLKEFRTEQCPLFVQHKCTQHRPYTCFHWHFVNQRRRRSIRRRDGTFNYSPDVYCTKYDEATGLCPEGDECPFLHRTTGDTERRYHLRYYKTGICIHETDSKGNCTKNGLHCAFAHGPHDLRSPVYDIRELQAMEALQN
# Experiment: nsRBNS (natural sequence RNA bind-n-seq); RBNS binding buffer (assumed for nsRBNS): 25 mM Tris pH 7.5, 150 mM KCl, 3 mM MgCl2, 0.01% Triton X-100, 500 ug/ml BSA, 20 U/ml SUPERase-In, 4 C; UNK is unkempt and MSI1 is Musashi-1; names of the RNAs are library labels; protein concentration not given here; high values mean tight binding
row,Binder,binding signal
1,B1,0.463 enrichment R
2,B2,1.87 enrichment R
3,B3,0.303 enrichment R
4,B4,0.885 enrichment R
5,B5,1.41 enrichment R
6,B6,1.16 enrichment R
7,B7,1.01 enrichment R
8,B8,0.756 enrichment R
9,B9,0.531 enrichment R
10,B10,1.2 enrichment R
11,B11,0.583 enrichment R
12,B12,0.371 enrichment R
13,B13,1.3 enrichment R
14,B14,0.992 enrichment R
15,B15,0.794 enrichment R
16,B16,1.28 enrichment R
17,B17,0.686 enrichment R
18,B18,0.495 enrichment R
19,B19,1.04 enrichment R
20,B20,2.87 enrichment R
21,B21,1.07 enrichment R
22,B22,0.596 enrichment R
